Results reported in publication PMC4336329 (PLoS ONE, 2015).
In all, about 310,000 compounds went through this assay and about 2,200 (0.71%) showed an effect of 50% or more. The effect is printed as a negative number. Some of the results follow.

biological target: human ether-à-go-go-related gene (hERG) potassium channel (human, UniProt Q12809); experiment: primary screen, population patch clamp on CHO cells stably expressing hERG
Sequence (Q12809 whole entry, looked up): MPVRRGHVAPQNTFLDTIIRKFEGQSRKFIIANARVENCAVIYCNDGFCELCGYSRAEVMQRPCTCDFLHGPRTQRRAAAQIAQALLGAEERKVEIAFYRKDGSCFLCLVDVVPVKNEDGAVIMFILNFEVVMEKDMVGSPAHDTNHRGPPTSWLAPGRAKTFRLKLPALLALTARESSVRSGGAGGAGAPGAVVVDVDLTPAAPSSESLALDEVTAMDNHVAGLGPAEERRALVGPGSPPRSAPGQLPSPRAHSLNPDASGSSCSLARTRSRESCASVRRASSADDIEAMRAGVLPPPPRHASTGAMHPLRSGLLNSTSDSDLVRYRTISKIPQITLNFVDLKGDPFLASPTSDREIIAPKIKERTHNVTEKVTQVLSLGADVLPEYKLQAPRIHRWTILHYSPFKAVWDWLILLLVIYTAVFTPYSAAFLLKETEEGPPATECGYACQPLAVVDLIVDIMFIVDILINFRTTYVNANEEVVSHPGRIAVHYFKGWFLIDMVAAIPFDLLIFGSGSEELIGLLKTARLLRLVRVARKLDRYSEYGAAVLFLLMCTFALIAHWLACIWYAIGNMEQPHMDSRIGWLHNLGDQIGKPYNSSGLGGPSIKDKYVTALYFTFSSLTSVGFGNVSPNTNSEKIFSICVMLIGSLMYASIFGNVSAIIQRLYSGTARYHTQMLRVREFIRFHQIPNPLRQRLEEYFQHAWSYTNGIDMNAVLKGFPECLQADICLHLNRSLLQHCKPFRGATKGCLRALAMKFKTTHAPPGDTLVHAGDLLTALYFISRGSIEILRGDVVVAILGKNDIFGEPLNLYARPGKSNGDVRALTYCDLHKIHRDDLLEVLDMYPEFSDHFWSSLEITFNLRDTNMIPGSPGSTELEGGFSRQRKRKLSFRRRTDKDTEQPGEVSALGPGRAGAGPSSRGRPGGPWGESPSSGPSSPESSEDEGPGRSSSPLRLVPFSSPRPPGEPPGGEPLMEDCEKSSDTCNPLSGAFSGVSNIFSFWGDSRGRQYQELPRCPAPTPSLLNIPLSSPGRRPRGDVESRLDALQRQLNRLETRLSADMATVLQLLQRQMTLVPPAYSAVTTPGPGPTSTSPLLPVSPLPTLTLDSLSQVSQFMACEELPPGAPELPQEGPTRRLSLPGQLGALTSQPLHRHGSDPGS

Structure (SMILES) | hERG current change (%, negative = inhibition) at 1uM
CCOc1ccc(C2C=C(c3ccc(C)cc3)Nc3ncnn32)cc1 (stereo not shown) | 18.2%
CN(C)c1ccc(-c2nn3c(-c4cccnc4)nnc3s2)cc1 | 6.71%
CCCC(C)C(=O)OCC(=O)NCc1ccc(OC)c(OC)c1 (stereo not shown) | 14.7%
CC1(C)CC(=O)C2=C(C1)N(CCN1CCOCC1)C1=C(C(=O)CC(C)(C)C1)C2c1ccc(Cl)c([N+](=O)[O-])c1 | 11.4%
Cc1nn(CC(=O)Nc2nccs2)c(C)c1[N+](=O)[O-] | 2.98%
CCOC(=O)Cc1c(C)c2ccc(N(CC)CC)cc2oc1=O | 14%
COCC(C)NC(=O)c1cc2c(ccc3ccccc32)oc1=O (stereo not shown) | 15.5%
CC1CCCN(C(=O)CSc2nc3ccccc3o2)C1 (stereo not shown) | 4.23%
CC1CCCCN1S(=O)(=O)c1ccc(S(=O)(=O)N2CCN(c3ccc(F)cc3)CC2)cc1 (stereo not shown) | -0.313%
CC(Oc1ccccc1)C(=O)Nc1cccc(F)c1 (stereo not shown) | 8.48%
Cc1cc2ncc(-c3cccc(Cl)c3)cn2n1 | 11%
O=C(N/N=C/c1ccccc1Cl)c1ccc(F)cc1 | 15.6%
Cc1cc(Br)ccc1NC(=O)C1CSC2(C)CCC(=O)N12 (stereo not shown) | -4.61%
CCN(CC)c1ccc([N+](=O)[O-])cc1C(=O)O | 13.2%
Cc1ccc(C(=O)NNC(=O)CSc2nnc(CNc3ccc(F)cc3)n2C)cc1 | 19.9%
NC(=O)c1cc2ccccc2o/c1=N\NC(=O)c1ccncc1 | -4.09%
O=C(CNC(c1ccccc1)c1ccccc1)Nc1c(F)cccc1F | 3.22%
O=S1(=O)N(Cc2ccccc2F)CCCN1Cc1c(F)cccc1Cl | 11.2%
O=C(CSC1=NS(=O)(=O)c2cc(F)ccc2N1)Nc1cccc(F)c1 | 2.39%
Cc1cccc(C(=O)Oc2ccc(/C=N/O)cc2)c1 | 3.57%
CC1=C(C(=O)N(C)C)C(c2ccc(Cl)c(Cl)c2)NC(=O)N1 (stereo not shown) | 4.14%
COC(=O)C(C)Sc1n[nH]c(=S)s1 (stereo not shown) | 15%

Structure (SMILES) | hERG current change (%, negative = inhibition) at 1uM
COCCN1C(=O)/C(=C/c2c(OC)cc(OC)cc2OC)C(=O)N(c2ccccc2)C1=O | 8.55%
Br.c1cn2cc(CN3CCOCC3)nc2s1 | 4.97%
CN(Cc1c(C(=O)N/N=C/c2ccccc2F)nnn1-c1nonc1N)c1ccccc1 | 30.3%
COC(=O)C1=C(c2ccc(F)cc2OCc2ccccc2)C[C@@H]2CC[C@H]1N2C(=O)NC1CC1 | 13%
Cc1ccc(OCCNC(=O)CCNS(=O)(=O)c2ccc(Br)cc2)cc1 | 18%
COc1cc(/C=N/n2cc(-c3ccccc3)[nH]c2=S)cc(OC)c1O | 2.18%
O=C(O)c1cnn(-c2nc(-c3cccc([N+](=O)[O-])c3)cs2)c1C(F)(F)F | 19.7%
CN(C)c1cc[n+](CC(=O)Nc2ccc([N+](=O)[O-])cc2Cl)cc1.[Cl-] | 12.9%
CCn1nc([N+](=O)[O-])c(C(C#N)c2nc3cc(C(F)(F)F)ccc3s2)c(Cl)c1=O (stereo not shown) | 18%
O=C1NN=C(c2ccccc2)CC1c1ccc(Cl)cc1Cl (stereo not shown) | 18.7%
O=[N+]([O-])c1ccc(-c2nc(C(Cl)Cl)c3ccccc3n2)cc1 | 16.1%
CC(=O)c1ccc(C(=O)N2CCCC(Nc3ccccc3)C2)s1 (stereo not shown) | 9.65%
CC(=O)Nc1ccc(S(=O)(=O)N/N=C/c2cccnc2)cc1 | -1.17%
CC(C)(C)[C@@H]1C=C(C(=O)NCc2ccccc2)O[C@H](OCc2ccc(CO)cc2)C1 | 11.5%
CCOc1ccc(NS(=O)(=O)c2ccc3[nH]cc(C(=O)NC(C)CC)c(=O)c3c2)cc1 (stereo not shown) | 5.91%
O=C(O)C(Cc1ccccc1)NC(=O)C(Cc1ccccc1)NC(=O)C12CC3CC(CC(C3)C1)C2 (stereo not shown) | 19.5%
CNS(=O)(=O)c1cccc(C(=O)OCC(=O)N2c3ccccc3CC2C)c1 (stereo not shown) | 9.07%
CC(=O)N1CCc2cc(Br)cc(S(=O)(=O)NCC3CCCO3)c21 (stereo not shown) | 3.6%
COc1ccc(-n2ncc3c2CC(C)(C)CC3NC(=O)CCN2CCCC2=O)cc1 (stereo not shown) | 7.82%
O=C(CCCCCn1c(=O)[nH]c2ccsc2c1=O)NCc1ccc2c(c1)OCO2 | 6.23%
CC(=O)NC(Cc1ccc(C)cc1)C(=O)NC1CCN(S(=O)(=O)c2ccccc2)CC1 (stereo not shown) | -0.623%
